Source: PubChem BioAssay AID686978 (National Center for Advancing Translational Sciences (NCATS), 2013)
Where “and” joins values, the source holds several entries; their conditions need not be identical. Equal entries are not always repeated. Among all 420,000 compounds or so, about 64,000 (15%) were called active. Inconclusive means that the source gave no clear call. Such entries were picked first, then a sample of the others. Calls follow the shape of the dose curve; as a rule, active = well fitted inhibition curve with a large enough effect; inconclusive = small, poorly fitted or top-dose-only effect; inactive = flat fitted curve, though single readings scatter. No potency is given beside an inconclusive call; the fits are too rough.

experiment: qHTS for Inhibitors of human tyrosyl-DNA phosphodiesterase 1 (TDP1): qHTS in cells in absence of CPT; conditions: DT40 Tdp1-/- hTDP1 cells, no CPT, ATP luminescence, 48 h; activity change, negative = growth inhibition: at 46.2 µM (top of the series) unless noted; also: nearly all actives have a fitted effect of over 55% in size
How it was run: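 Growth kinetics read by CellTiter-Glo luminescence after ≥48 hr at 37 °C. Cells: DT40 Tdp1-/- stably carrying human TDP1, 400 per well, compound exposure in the absence of CPT (DMSO vehicle).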
% is scaled to controls: 0 for no effect and ±100 for the full control effect; potency is read from the fitted curve at half-maximal effect; tags tell the direction and shape of the fitted curve.

Row | Structure (SMILES) | Potency | activity change, negative = growth inhibition
1 | CCC(=Nc1ccc2c(c1)CCC2)c1c(O)n(-c2ccc(OC)cc2)c(=O)[nH]c1=O | active: 14.6 µM | 
2 | C[C@@H](N)Cn1ccc2cc(F)c(Cl)cc21 | inconclusive [inhibitor, partial curve, poor fit] | 
3 | COC(=O)C1=C(c2ccc(OC)c(OC)c2)C[C@@H]2CC[C@H]1N2C(=O)NCCCOC(C)C |  | inactive: -16.8%
4 | O=C(NN=Cc1ccc(N(CCCl)CCCl)cc1)c1cccc([N+](=O)[O-])c1 | inconclusive [inhibitor, partial curve] | 
5 | CC(C)COC(=O)N1Cc2ccccc2-n2nncc2C1 |  | inactive: -23.5%
6 | CN1CCN(c2cc3c(nn2)Oc2ccccc2N3C)CC1 | inconclusive [inhibitor, single point] | 
7 | O=C1NCN(c2ccccc2)C12CCN(C(c1cccs1)c1nnnn1C1CCCC1)CC2 (stereo not drawn) | inconclusive [inhibitor, single point] | 
8 | CC/C(=N\N1CCCCCC1)c1c(O)n(-c2ccccc2C)c(=O)[nH]c1=O | active: 14.6 µM | 
9 | O=[N+]([O-])NC1=NCN(Cc2ccco2)CN1Cc1ccco1 | inconclusive [inhibitor, full curve, poor fit] | 
10 | Nc1c2c(nc3sc4c(c13)CCCC4)CCCC2 | inconclusive [inhibitor, single point] | 
11 | CC1CN(CC(=O)c2ccccc2Cl)CC(C)O1 (stereo not drawn) | inconclusive [inhibitor, single point] | 
12 | N#Cc1cc2c(nc1SCC(=O)Nc1cc(Cl)ccc1Cl)C1CCN2CC1 | inconclusive [inhibitor, single point] | 
13 | [N-]=[N+]=CC(=O)OC[C@H](N)C(=O)O | inconclusive [inhibitor, partial curve, poor fit] | 
14 | CN1CN(c2ccccc2)C2(CCN(CCCSc3ccccc3NC(=O)/C=C/c3ccccc3)CC2)C1=O | inconclusive [inhibitor, single point] | 
15 | COP(=S)(OC)Oc1ccc(S(N)(=O)=O)cc1 |  | inactive: -3.79%
16 | Oc1ccc(CCNCc2cc3c(cc2Br)OCO3)cc1 | active: 29.1 µM | 
17 | CC1=C/C(=N\NC(=S)NCCc2ccccc2)CC(C)(C)C1 | inconclusive [inhibitor, single point] | 
18 | CCOP(=O)(OCC)C(NC(=O)Nc1ccc(Cl)c(Cl)c1)c1ccccc1 (stereo not drawn) | active: 16.4 µM | 
19 | Cc1oc(-c2cccs2)nc1CSCC(=O)N1CCC2(CC1)OCCO2 | inconclusive [inhibitor, partial curve] | 
20 | NC(=O)c1cn(C2OC(CO)C(O)C2O)c2ncnc(N)c12 (stereo not drawn) | active: 146 nM and active: 16.4 nM | 
21 | C[C@@H]1CC2C3CC=C4C[C@@H](O)CC[C@]4(C)C3CC[C@]2(C)[C@H]1O (stereo partly drawn) | inconclusive [inhibitor, single point] | 
22 | COc1cccc(-c2cc(C(=O)Nc3cnn(Cc4ccc(Cl)cc4Cl)c3)no2)c1 | inconclusive [inhibitor, single point] | 

Row | Structure (SMILES) | Potency | activity change, negative = growth inhibition
23 | O=C(O)CCCCCCNC1c2ccccc2CCc2ccccc21 |  | inactive: 1.76%
24 | C[C@H](CO)N1C[C@H](C)[C@@H](CN(C)C(=O)NC2CCCCC2)Oc2c(NC(=O)Nc3ccc4c(c3)OCO4)cccc2C1=O | inconclusive [inhibitor, single point] | 
25 | O=C1NC(=O)C(=Cc2cccc(OCCOc3ccccc3)c2)C(=O)N1 | inconclusive [inhibitor, single point] | 
26 | O=c1[nH]c2ccccc2n1C1CCN(C(c2cccc3ccccc23)c2nnnn2Cc2ccccc2)CC1 (stereo not drawn) | active: 8.2 µM | 
27 | OC(c1ccc(F)cc1)(c1ccc(F)cc1)[C@@H]1CCCN1 | active: 16.4 µM | 
28 | CC(C(=O)c1c[nH]c2ccccc12)N1CCc2ccccc2C1 (stereo not drawn) | inconclusive [inhibitor, single point] | 
29 | O=C(c1cc(-c2ccc(Cl)cc2)n[nH]1)N1CCN(S(=O)(=O)c2ccc(Br)s2)CC1 | active: 14.6 µM | 
30 | Cc1oc(-c2ccccc2)nc1CN1C(=O)CN=C(c2ccccc2)c2ccccc21 | inconclusive [inhibitor, single point] | 
31 | O=C1CN=C(c2ccc(Br)cc2)c2c(sc3c2CCCC3)N1CCN1CCCCC1 | active: 5.8 µM | 
32 | C[N+]12CN3CN(CN(C3)C1)C2 | inconclusive [inhibitor, single point] | 
33 | C=CCn1c(O)c(C(C)=Nc2ccc(N(C)C)cc2)c(=O)[nH]c1=O | inconclusive [inhibitor, single point] | 
34 | CCOc1ccc(CN(CCc2ccc3c(c2)OCO3)Cc2ccc(OC)c(Br)c2)cc1 | inconclusive [inhibitor, partial curve, poor fit] | 
35 | CN(C)CCOc1ccc(/C(=C(/CCCl)c2ccccc2)c2ccccc2)cc1 | inconclusive [inhibitor, single point] | 
36 | O=C(c1ccccc1)C(CN1CCCC1)c1ccccc1 (stereo not drawn) | active: 1.64 µM | 
37 | COc1ccc(N2CCN(CCCN)CC2)cc1 | inconclusive [inhibitor, single point] | 
38 | CCn1ccnc1CN1CCCC(C(=O)c2cc(Cl)ccc2OC)C1 (stereo not drawn) | inconclusive [inhibitor, partial curve, poor fit] | 
39 | Cc1ccc(C(C)C)c(OCC(=O)N2CCN(CCc3ccncc3)CC2)c1 | inconclusive [inhibitor, single point] | 
40 | CC(C)COC(=O)n1c(=O)oc2ccc(S(=O)(=O)N3CCCCC3)cc21 | inconclusive [inhibitor, single point] | 
41 | CCC1CN1P(=S)(N1CC1CC)N1CC1CC (stereo not drawn) | inconclusive [inhibitor, single point] | 
42 | CCN1C[C@]2(COC)CC[C@H](O)[C@@]34C5C[C@H]6[C@H](O)C5[C@](O)(C[C@H]6OC)[C@@H]([C@H](OC)C23)[C@@H]14 (stereo partly drawn) |  | inactive: 0.313%
43 | Cn1c(O)c(C2=NNC(c3ccc(Cl)cc3)C2)c(=O)n(C)c1=O (stereo not drawn) | inconclusive [inhibitor, single point] | 
